{
  "source": "the supplement of paper PMC8728848",
  "binders": {"B1": {"name": "PX9961C-bth-497-22-497 (Bacteroides thetaiotaomicron) (protein)", "chain": "DWLDLNTTSSVETGQAIVTLDDAQIALNGIYRLASGHSYYGDNYWYYGDCRAADVQARITKGDGKRVSPYYEYNVLASDNLNIVLPWNTVYKVIRQTNNLIQKIESGSIQSSDTKELNRIKSEALVMRGLSLFNLTRLFGMPYTNDKGASLGVPIETSPSDPTHKPSRSTVAQCYEQVVSDMSNALSGLRQETSNGYINYWAAQALLSRVYLNMGEYQKAYDAATDVIKNNGGRYQLYSYEEYPNVWGQDFQSESLFELYITLSEPSGGTGGEGAPMVYANEATVDWNNLILSEDFLNLLNEDPKDVRHCLTKESVIENNTGLPAAAMHEKVYLAKFPGKTGDDPKTNNICIIRLSEVYLNAAEAGLKKGTDIEEAQGYLNDIISRRTTDTSQQVSTETFTLDRILKERRKELVGEGEVFYDYLRNGLAIERKGSWHLETLKASNAQKIEATDLRIALPIPQSEIDANPNIQQNPR"}},
  "experiment_in_all_cases": "glycan array binding signal (z-score within array); higher = stronger binding",
  "conditions_in_all_cases": "glycan notation: IUPAC condensed, linker removed",
  "key": {"[1]": {"molecular_target": "Neu5Ac(a2-3)Gal(b1-4)GlcNAc(b1-2)[Neu5Ac(a2-3)Gal(b1-4)GlcNAc(b1-4)]Man(a1-3)[GlcNAc(b1-4)][Neu5Ac(a2-3)Gal(b1-4)GlcNAc(b1-4)Man(a1-6)]Man(b1-4)GlcNAc(b1-4)GlcNAc", "how_it_was_run": "(§1)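 The binding signal is a Z-score computed within each array and averaged over linkers. Arrays of the same protein sequence at different concentrations or buffers were also averaged together. Data originate from 3228 arrays in the Consortium for Functional Glycomics database, kept only where the protein sequence was available.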"}, "[2]": {"molecular_target": "Neu5Ac(a2-3)Gal(b1-4)GlcNAc(b1-2)[Neu5Ac(a2-3)Gal(b1-4)GlcNAc(b1-6)]Man(a1-6)[Neu5Ac(a2-3)Gal(b1-4)GlcNAc(b1-2)Man(a1-3)]Man(b1-4)GlcNAc(b1-4)GlcNAc", "how_it_was_run": "as §1"}, "[3]": {"molecular_target": "Neu5Ac(a2-3)Gal(b1-4)GlcNAc(b1-2)[Neu5Ac(a2-3)Gal(b1-4)GlcNAc(b1-6)]Man(a1-6)[Neu5Ac(a2-3)Gal(b1-4)GlcNAc(b1-2)Man(a1-3)][GlcNAc(b1-4)]Man(b1-4)GlcNAc(b1-4)GlcNAc", "how_it_was_run": "as §1"}, "[4]": {"molecular_target": "Neu5Ac(a2-3)Gal(b1-4)GlcNAc(b1-3)Gal", "how_it_was_run": "as §1"}, "[5]": {"molecular_target": "Neu5Ac(a2-3)Gal(b1-4)GlcNAc(b1-3)Gal(b1-3)GlcNAc", "how_it_was_run": "as §1"}, "[6]": {"molecular_target": "Neu5Ac(a2-3)Gal(b1-4)GlcNAc(b1-3)Gal(b1-4)GlcNAc", "how_it_was_run": "as §1"}, "[7]": {"molecular_target": "Neu5Ac(a2-3)Gal(b1-4)GlcNAc(b1-3)Gal(b1-4)GlcNAc(b1-2)Man(a1-3)[Neu5Ac(a2-3)Gal(b1-4)GlcNAc(b1-3)Gal(b1-4)GlcNAc(b1-2)Man(a1-6)]Man(b1-4)GlcNAc(b1-4)GlcNAc", "how_it_was_run": "as §1"}, "[8]": {"molecular_target": "Neu5Ac(a2-3)Gal(b1-4)GlcNAc(b1-3)Gal(b1-4)GlcNAc(b1-3)Gal(b1-4)GlcNAc", "how_it_was_run": "as §1"}, "[9]": {"molecular_target": "Neu5Ac(a2-3)Gal(b1-4)GlcNAc(b1-3)Gal(b1-4)GlcNAc(b1-3)Gal(b1-4)GlcNAc(b1-2)Man(a1-3)[Neu5Ac(a2-3)Gal(b1-4)GlcNAc(b1-3)Gal(b1-4)GlcNAc(b1-3)Gal(b1-4)GlcNAc(b1-2)Man(a1-6)]GalNAc", "how_it_was_run": "as §1"}, "[10]": {"molecular_target": "Neu5Ac(a2-3)Gal(b1-4)GlcNAc(b1-3)Gal(b1-4)GlcNAc(b1-3)GalNAc", "how_it_was_run": "as §1"}, "[11]": {"molecular_target": "Neu5Ac(a2-3)Gal(b1-4)GlcNAc(b1-3)Gal(b1-4)GlcNAc(b1-3)[Neu5Ac(a2-3)Gal(b1-4)GlcNAc(b1-3)Gal(b1-4)GlcNAc(b1-6)]GalNAc", "how_it_was_run": "as §1"}, "[12]": {"molecular_target": "Neu5Ac(a2-3)Gal(b1-4)GlcNAc(b1-3)Gal(b1-4)GlcNAc(b1-6)[Gal(b1-3)]GalNAc", "how_it_was_run": "as §1"}, "[13]": {"molecular_target": "Neu5Ac(a2-3)Gal(b1-4)GlcNAc(b1-3)Gal(b1-4)[Fuc(a1-3)]GlcNAc", "how_it_was_run": "as §1"}, "[14]": {"molecular_target": "Neu5Ac(a2-3)Gal(b1-4)GlcNAc(b1-3)GalNAc", "how_it_was_run": "as §1"}, "[15]": {"molecular_target": "Neu5Ac(a2-3)Gal(b1-4)GlcNAc(b1-3)[Neu5Ac(a2-3)Gal(b1-4)GlcNAc(b1-6)]GalNAc", "how_it_was_run": "as §1"}, "[16]": {"molecular_target": "Neu5Ac(a2-3)Gal(b1-4)GlcNAc(b1-6)GalNAc", "how_it_was_run": "as §1"}, "[17]": {"molecular_target": "Neu5Ac(a2-3)Gal(b1-4)GlcNAc(b1-6)[Gal(b1-3)]GalNAc", "how_it_was_run": "as §1"}, "[18]": {"molecular_target": "Neu5Ac(a2-3)Gal(b1-4)GlcNAc(b1-6)[Neu5Ac(a2-3)Gal(b1-3)]GalNAc", "how_it_was_run": "as §1"}, "[19]": {"molecular_target": "Neu5Ac(a2-3)Gal(b1-4)GlcNAc6S", "how_it_was_run": "as §1"}, "[20]": {"molecular_target": "Neu5Ac(a2-3)Gal(b1-4)[Fuc(a1-3)]GlcNAc", "how_it_was_run": "as §1"}, "[21]": {"molecular_target": "Neu5Ac(a2-3)Gal(b1-4)[Fuc(a1-3)]GlcNAc(b1-2)Man", "how_it_was_run": "as §1"}, "[22]": {"molecular_target": "Neu5Ac(a2-3)Gal(b1-4)[Fuc(a1-3)]GlcNAc(b1-3)Gal", "how_it_was_run": "as §1"}, "[23]": {"molecular_target": "Neu5Ac(a2-3)Gal(b1-4)[Fuc(a1-3)]GlcNAc(b1-3)Gal(b1-4)GlcNAc", "how_it_was_run": "as §1"}, "[24]": {"molecular_target": "Neu5Ac(a2-3)Gal(b1-4)[Fuc(a1-3)]GlcNAc(b1-3)Gal(b1-4)[Fuc(a1-3)]GlcNAc(b1-3)Gal(b1-4)[Fuc(a1-3)]GlcNAc", "how_it_was_run": "as §1"}, "[25]": {"molecular_target": "Neu5Ac(a2-3)Gal(b1-4)[Fuc(a1-3)]GlcNAc(b1-3)GalNAc", "how_it_was_run": "as §1"}, "[26]": {"molecular_target": "Neu5Ac(a2-3)Gal(b1-4)[Fuc(a1-3)]GlcNAc(b1-6)[Gal(b1-3)]GalNAc", "how_it_was_run": "as §1"}, "[27]": {"molecular_target": "Neu5Ac(a2-3)Gal(b1-4)[Fuc(a1-3)]GlcNAc(b1-6)[Neu5Ac(a2-3)Gal(b1-3)]GalNAc", "how_it_was_run": "as §1"}, "[28]": {"molecular_target": "Neu5Ac(a2-3)Gal(b1-4)[Fuc(a1-3)]GlcNAc6S", "how_it_was_run": "as §1"}, "[29]": {"molecular_target": "Neu5Ac(a2-3)Gal6S(b1-4)GlcNAc", "how_it_was_run": "as §1"}, "[30]": {"molecular_target": "Neu5Ac(a2-3)Gal6S(b1-4)[Fuc(a1-3)]GlcNAc", "how_it_was_run": "as §1"}, "Neu5Ac(a2-3)GalNAc": {"molecular_target": "Neu5Ac(a2-3)GalNAc", "how_it_was_run": "as §1"}, "[31]": {"molecular_target": "Neu5Ac(a2-3)GalNAc(b1-4)GlcNAc", "how_it_was_run": "as §1"}, "[32]": {"molecular_target": "Neu5Ac(a2-3)[GalNAc(b1-4)]Gal(b1-4)Glc", "how_it_was_run": "as §1"}, "[33]": {"molecular_target": "Neu5Ac(a2-3)[GalNAc(b1-4)]Gal(b1-4)GlcNAc", "how_it_was_run": "as §1"}, "[34]": {"molecular_target": "Neu5Ac(a2-3)[GalNAc(b1-4)]Gal(b1-4)GlcNAc(b1-3)GalNAc", "how_it_was_run": "as §1"}, "[35]": {"molecular_target": "Neu5Ac(a2-3)[Neu5Ac(a2-6)]GalNAc", "how_it_was_run": "as §1"}, "Neu5Ac(a2-6)Gal": {"molecular_target": "Neu5Ac(a2-6)Gal", "how_it_was_run": "as §1"}},
  "note": "This is one part of the list.",
  "data": [
    {"binder": "B1", "values": [
      {"measurement": "glycan array binding signal (z-score)", "setting": "[1]", "value": -0.502},
      {"measurement": "glycan array binding signal (z-score)", "setting": "[2]", "value": 0.379},
      {"measurement": "glycan array binding signal (z-score)", "setting": "[3]", "value": -0.163},
      {"measurement": "glycan array binding signal (z-score)", "setting": "[4]", "value": 0.136},
      {"measurement": "glycan array binding signal (z-score)", "setting": "[5]", "value": -0.865},
      {"measurement": "glycan array binding signal (z-score)", "setting": "[6]", "value": -0.432},
      {"measurement": "glycan array binding signal (z-score)", "setting": "[7]", "value": -0.402},
      {"measurement": "glycan array binding signal (z-score)", "setting": "[8]", "value": 0.052},
      {"measurement": "glycan array binding signal (z-score)", "setting": "[9]", "value": 0.868},
      {"measurement": "glycan array binding signal (z-score)", "setting": "[10]", "value": -0.499},
      {"measurement": "glycan array binding signal (z-score)", "setting": "[11]", "value": 0.407},
      {"measurement": "glycan array binding signal (z-score)", "setting": "[12]", "value": -0.285},
      {"measurement": "glycan array binding signal (z-score)", "setting": "[13]", "value": -0.485},
      {"measurement": "glycan array binding signal (z-score)", "setting": "[14]", "value": -0.534},
      {"measurement": "glycan array binding signal (z-score)", "setting": "[15]", "value": -0.32},
      {"measurement": "glycan array binding signal (z-score)", "setting": "[16]", "value": 0.315},
      {"measurement": "glycan array binding signal (z-score)", "setting": "[17]", "value": -0.188},
      {"measurement": "glycan array binding signal (z-score)", "setting": "[18]", "value": 0.025},
      {"measurement": "glycan array binding signal (z-score)", "setting": "[19]", "value": -0.007},
      {"measurement": "glycan array binding signal (z-score)", "setting": "[20]", "value": -0.233},
      {"measurement": "glycan array binding signal (z-score)", "setting": "[21]", "value": 0.374},
      {"measurement": "glycan array binding signal (z-score)", "setting": "[22]", "value": -0.588},
      {"measurement": "glycan array binding signal (z-score)", "setting": "[23]", "value": -0.101},
      {"measurement": "glycan array binding signal (z-score)", "setting": "[24]", "value": 0.773},
      {"measurement": "glycan array binding signal (z-score)", "setting": "[25]", "value": -0.498},
      {"measurement": "glycan array binding signal (z-score)", "setting": "[26]", "value": 0.243},
      {"measurement": "glycan array binding signal (z-score)", "setting": "[27]", "value": -0.117},
      {"measurement": "glycan array binding signal (z-score)", "setting": "[28]", "value": -0.218},
      {"measurement": "glycan array binding signal (z-score)", "setting": "[29]", "value": 0.4},
      {"measurement": "glycan array binding signal (z-score)", "setting": "[30]", "value": -0.316},
      {"measurement": "glycan array binding signal (z-score)", "setting": "Neu5Ac(a2-3)GalNAc", "value": -0.73},
      {"measurement": "glycan array binding signal (z-score)", "setting": "[31]", "value": -0.602},
      {"measurement": "glycan array binding signal (z-score)", "setting": "[32]", "value": -0.147},
      {"measurement": "glycan array binding signal (z-score)", "setting": "[33]", "value": -0.469},
      {"measurement": "glycan array binding signal (z-score)", "setting": "[34]", "value": -0.183},
      {"measurement": "glycan array binding signal (z-score)", "setting": "[35]", "value": -0.012},
      {"measurement": "glycan array binding signal (z-score)", "setting": "Neu5Ac(a2-6)Gal", "value": 0.311}
    ]}
  ]
}
